The campaign covered roughly 310,000 compounds. About 2,200 (0.71%) showed an effect of 50% or more. Effects have a minus sign here. Some of the results follow.
target: human ether-à-go-go-related gene (hERG) potassium channel (human, UniProt Q12809); assay: primary screen, population patch clamp on CHO cells stably expressing hERG
Sequence (Q12809 whole entry, looked up): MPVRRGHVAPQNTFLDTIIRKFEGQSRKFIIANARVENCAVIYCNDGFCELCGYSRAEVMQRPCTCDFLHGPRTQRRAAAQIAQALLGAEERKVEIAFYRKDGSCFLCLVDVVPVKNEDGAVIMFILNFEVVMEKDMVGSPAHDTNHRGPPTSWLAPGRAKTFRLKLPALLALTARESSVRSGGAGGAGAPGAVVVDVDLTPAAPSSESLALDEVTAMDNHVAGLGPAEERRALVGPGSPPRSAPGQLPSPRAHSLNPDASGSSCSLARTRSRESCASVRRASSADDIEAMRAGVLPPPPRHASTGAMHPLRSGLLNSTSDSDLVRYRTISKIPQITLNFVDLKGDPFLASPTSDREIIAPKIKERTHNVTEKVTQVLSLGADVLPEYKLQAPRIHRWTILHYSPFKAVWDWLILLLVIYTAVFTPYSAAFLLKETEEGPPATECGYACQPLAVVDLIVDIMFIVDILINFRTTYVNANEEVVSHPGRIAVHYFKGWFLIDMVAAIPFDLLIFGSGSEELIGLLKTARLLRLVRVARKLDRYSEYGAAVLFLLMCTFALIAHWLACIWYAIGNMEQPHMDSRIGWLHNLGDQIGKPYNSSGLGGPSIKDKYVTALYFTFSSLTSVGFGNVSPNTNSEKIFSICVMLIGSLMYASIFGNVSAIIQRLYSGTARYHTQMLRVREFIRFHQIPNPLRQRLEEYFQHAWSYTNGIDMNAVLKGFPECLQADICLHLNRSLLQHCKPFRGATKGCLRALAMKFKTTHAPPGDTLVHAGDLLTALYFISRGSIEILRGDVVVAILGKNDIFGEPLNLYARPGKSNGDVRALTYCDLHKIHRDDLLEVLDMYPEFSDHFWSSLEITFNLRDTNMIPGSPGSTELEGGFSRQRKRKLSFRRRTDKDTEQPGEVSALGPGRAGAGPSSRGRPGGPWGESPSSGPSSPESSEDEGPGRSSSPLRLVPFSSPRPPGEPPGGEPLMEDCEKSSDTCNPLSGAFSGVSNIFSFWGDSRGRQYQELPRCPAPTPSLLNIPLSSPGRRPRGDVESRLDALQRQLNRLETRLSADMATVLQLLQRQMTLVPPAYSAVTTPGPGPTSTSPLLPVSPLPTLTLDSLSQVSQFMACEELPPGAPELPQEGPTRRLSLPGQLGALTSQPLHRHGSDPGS

SMILES	hERG current change (%, negative = inhibition) at 1uM [%]
N=c1c(C(=O)NC2CCCCC2)cc2c(=O)n3ccccc3nc2n1CC1CCCO1 (stereo not drawn)	-79.2
CCOc1ccc(NC(=O)CN(C)C(=O)c2ccc(C3SCCS3)cc2)cc1OCC	8.38
CCOC(=O)Cc1csc(NC(=O)CSc2nnc3ccccn23)n1	12.2
O=C(NCCN1CCNC1=O)C1CCC(=O)N(Cc2cccc(C(F)(F)F)c2)C1 (stereo not drawn)	9.07
CCN(CC)C(=O)CSc1nc2nc(C)cc(C)c2c(=O)[nH]1	12.4
CCCN1C2=C(C(=O)CCC2)C(c2ccc(O)c(Br)c2)C2=C1CCCC2=O	4.46
COc1ccc(CNC(=O)CSc2nnc3c(n2)[nH]c2ccc(F)cc23)cc1	11.8
CCOc1ccc(-n2nnnc2SCC(=O)Nc2ccc(NC(C)=O)cc2)cc1	19.3
COc1ccc(OC)c(CCNC(=O)CCc2nnc3ccc(N4CCOCC4)nn23)c1	13.4
CCn1c(CC(=O)Nc2ccccc2)nnc1SCC(=O)NC1=NCCS1	8.66
O=C(CC(c1ccccc1)c1cc(Cl)ccc1O)N1CCOCC1 (stereo not drawn)	1.93
CC(C)(C)c1nn(-c2ccccc2)c2[nH]c(=O)c(C=O)cc12	9.55
Cc1ccc(N(CN2CCCC2=O)C(=O)c2ccccc2)cc1	16.2
Cc1ccccc1N1CC(C(=O)Nc2ccc(S(=O)(=O)NCC3CCCO3)cc2)CC1=O (stereo not drawn)	13.4
O=C(c1ccc(-c2ccc([N+](=O)[O-])cc2Cl)o1)N1CCOCC1	1.35
S=c1[nH]nc(C2CCCCC2)n1/N=C/c1ccccc1	16.8
CN(C)S(=O)(=O)c1cccc(NC(=O)COC(=O)c2c[nH]c(=O)[nH]c2=O)c1	27
OC(CNCc1ccc(F)cc1)(c1ccccc1)c1ccc(F)cc1 (stereo not drawn)	6.27
COc1cc(OC)c(C2N(C)c3ccccc3N2C)cc1OC	12.7
CN(CC(=O)N1CCCCC1)S(=O)(=O)c1ccc(Cl)cc1	11.4
COc1cc(-c2nnc(SCc3cc(=O)oc4cc(O)c(O)cc34)o2)cc(OC)c1OC	9.43
COc1cccc(/C=C2\Oc3cc(OCC(=O)N4CCCC4)ccc3C2=O)c1OC	14.3

SMILES	hERG current change (%, negative = inhibition) at 1uM [%]
NC(=O)CC(NC(=O)c1cccc(Br)c1)c1ccc(N2CCC(N3CCCCC3)CC2)c([N+](=O)[O-])c1 (stereo not drawn)	9.51
COc1cccc(Cn2cccc(NC(=O)Nc3ccccc3C)c2=O)c1	12.9
O=[N+]([O-])c1cccc(S(=O)(=O)NCCc2cn3ccccc3n2)c1	-3.32
CCOc1cc(-c2cc(-c3ccccc3)nc(N)c2C#N)ccc1O	16.6
COc1ccc(C2N=C(c3ccccc3)NC(c3ccccc3)=N2)cc1	2.9
Cc1cccc(-n2c(CNC(=O)COc3ccccc3)nnc2SCC(=O)Nc2nccs2)c1	5.1
CCOC(=O)c1sc(NC(=O)CSc2nnc(C(C)C)n2C)nc1C	13.5
O=C1C(=O)c2ccc(-c3ccccc3)cc2-c2ccccc21	14.3
COc1ccc(O)c(/C=N/NC(=S)Nc2cccnc2)c1	11.9
CC(/C=N/N1CCN(c2ccccn2)CC1)=C\c1ccccc1	10.3
O=C(CSc1ncccn1)NCc1ccc2c(c1)OCO2	5.32
Cc1cccc(NC(=O)C2C3CCCCC32)c1 (stereo not drawn)	19.1
CCCc1ccc(C(=O)CCC(=O)NNC(=O)c2ccncc2)cc1	3.3
CC(C)(C)C(O)(CC#CCN1CCCC1)c1ccccc1.Cl (stereo not drawn)	24
Cn1nccc1C(=O)N(CCN1CCCCC1)CC1CCCN(C2CCCC2)C1 (stereo not drawn)	8.81
COc1ccc(N2CC(C(=O)N[C@H](C(=O)NC(C)c3ccccc3)C(C)C)CC2=O)cc1 (stereo partly drawn)	8.37
Cn1c(NC(=O)c2cccnc2)nc2ccccc21	14.6
CCC(C)(C)C1CCc2[nH]nc(C(=O)NCc3ccc(Cl)cc3)c2C1 (stereo not drawn)	19.4
O=C(Nc1ccc(O)c(-c2nc3ccccc3s2)c1)c1cccs1	-3.11
Cc1ccc(C(=O)N2CCN(c3cccc(C)c3C)CC2)o1	3.6
Cc1nc(NCCNC(=O)c2ccco2)c2c(C)c(C)sc2n1	17.4
CCOC(=O)c1sc2nccc(OC)c2c1N=CNOC	5.68

SMILES	hERG current change (%, negative = inhibition) at 1uM [%]
COc1ccc(N(C(=O)c2ccco2)C(C(=O)NC2CCCC2)c2cccs2)cc1OC (stereo not drawn)	16.6
CCC(C)NC(=O)CCCCCn1c(=O)[nH]c2cc(OC)c(OC)cc2c1=O (stereo not drawn)	-3
Cc1cccc(NC(=O)c2cc(-c3cc(Cl)ccc3O)n[nH]2)c1	15.7
CC(C)(C)C(=O)Nc1cc(C(F)(F)F)ccc1-n1ccnc1	13.2
O=C1OCCC/C1=C\c1ccc2c(c1)OCO2	8.36
COc1ccc(CC(=O)OCC(=O)N(CC(C)C)c2c(N)n(Cc3ccccc3)c(=O)[nH]c2=O)cc1	12.3
Cc1ccc(-c2nc(CS(=O)CC(=O)NC3CCCC(C)C3C)c(C)o2)cc1 (stereo not drawn)	14.5
CN(c1ccccc1)S(=O)(=O)c1ccc(Cl)c(C(=O)NCCc2c[nH]c3ccccc23)c1	-4.51
O=c1oc(-c2ccc(Br)o2)nc2ccccc12	15.1
COc1ccc(Cl)cc1NC(=O)CN(C)CC(=O)Nc1c(C)n(C)n(-c2ccccc2)c1=O	12.4
C=C1SC(Nc2c(C)cccc2C)=NC12CCCCC2	11.4
CCCC(=O)NC(Nc1c(C)n(C)n(-c2ccccc2)c1=O)C(Cl)(Cl)Cl (stereo not drawn)	-4.06
Cc1cc(Oc2ccc(C#N)cc2)nc(NCc2ccccc2)n1	10.1
O=c1oc2ccccc2nc1/C=C(\O)c1ccccc1	17.7
CCOc1ccccc1NC(=O)Cn1c(=O)n(-c2ccc(OC)cc2OC)c(=O)c2c(C)c(C(=O)N(CC)CC)sc21	10.5
CCC1CCC2(CC1)NC(=O)N(CC(=O)Nc1cc(C)on1)C2=O (stereo not drawn)	11
CC(C)Nc1nc(SCC(N)=O)nc(N2CCOCC2)n1	20.2
C[C@@H](NC(=O)/C(C#N)=C/c1ccc(O)c(O)c1)c1ccccc1	9.35
CCOc1ccc(N(CC(=O)NC2CCCCC2)C(=O)CNC(=O)c2cccs2)cc1	-1.15
COc1ccc2nc(SCCC(=O)O)cc(C)c2c1	16.5
COc1ccccc1C(=O)NCC(=O)N/N=C/c1cc(Br)ccc1OC(=O)/C=C\c1ccco1	3.41
Cc1ccc(-n2c(O)c(/C=N/N3CCCCC3c3cccnc3)c(=O)[nH]c2=S)cc1 (stereo not drawn)	6.13

SMILES	hERG current change (%, negative = inhibition) at 1uM [%]
O=C(O)c1cccc(-n2c(-c3cnccn3)n[nH]c2=S)c1	15.5
Cc1cc(F)ccc1NC(=S)NC1CCCC1	16
O=C(O)Cc1ccc(NC(=S)NCc2ccco2)cc1	9.12
Cn1nc(C(F)(F)F)c(-c2ccc(Br)cc2)c1NC(=O)C1CCC1C(=O)O (stereo not drawn)	17.4
CC1=C(C(=O)OCc2ccccc2)C(c2ccc(Cl)cc2)NC(=O)N1C (stereo not drawn)	20.6
Cc1ccc2oc(=O)c3cnn(CC(=O)N(CCN(C)C)Cc4ccco4)c3c2c1	-6.08
CCN(CC#CCC1(O)c2ccccc2-c2ccccc21)C(C)C	-0.0358
CC(=O)C1=C(c2ccccc2)N(C(C)=O)n2c(C)nnc2S1	14.3
COCC1CCN(C(=O)c2oc3c(F)cccc3c2C)C1 (stereo not drawn)	4.46
O=C(OCC(=O)N1CCN(S(=O)(=O)c2ccc(Cl)cc2)CC1)c1ccc([N+](=O)[O-])o1	9.34
O=C(O)c1ccc(N/N=C/c2ccc(OC(=O)c3ccccc3Cl)cc2)cc1	-0.568
O=C(NCC1CC1)c1onc(CSc2nc3ccccc3[nH]2)c1C(=O)NCC1CC1	-28.3
CC(=O)Nc1ccc(Oc2ccc(S(=O)(=O)N3CCCC3)cn2)cc1	1.99
CCN(C(=O)COc1ccc(C)nc1[N+](=O)[O-])C1CCS(=O)(=O)C1 (stereo not drawn)	9.42
NC(=O)C1=C[C@H](c2csc3ccccc23)C[C@H](OCCCCO)O1	7.73
CCc1noc(C)c1C(=O)NCCN1C(=O)S/C(=C\c2ccc(OC)cc2)C1=O	7.03
O=C(COC(=O)/C=C/c1cccc(C(F)(F)F)c1)NCc1ccccc1	4.72
COc1ccc(S(=O)(=O)Nc2cccc(N(C)S(C)(=O)=O)c2)cc1Br	8.18
COC(=O)CN(CCc1ccccc1)S(=O)(=O)c1ccc(OC)c(OC)c1	-8.57
CC(=O)N1c2ccccc2S(=O)(=O)c2ccccc21	4.37
COc1ccccc1CNC(=O)C1CCN(c2nc3ccccc3o2)CC1	-4.77

Source: paper PMC4336329 (PLoS ONE, 2015)
